# Assay results taken from paper PMC11601504 (bioRxiv, 2024).
# B1: Thorase R304A ([…]) (enzyme)
# chain: not shown
# B2: Thorase E193Q ([…]) (enzyme)
# chain: not shown
# Target: the molecule itself
# Assay: negative-stain electron microscopy
Protein,binding result,stoichiometry N
B1,binds,
B2,,6
